# Data as given in the supplement of paper PMC12067230.
# The data scatter; read single values as rough.
# Assay: amyloid nucleation score relative to library mode (yeast Sup35 reporter selection) (log enrichment difference); higher = more amyloid nucleation; sequences are the first 22 residues of the Bri2 peptide extended by up to 12 random residues
# Conditions: random library (experiment): 1;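 active = nucleation score significantly above 0 at FDR 0.05; inactive = not significantly above 0 or absent from output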
# 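Note: [psi-pin-] Saccharomyces cerevisiae expressing SupN fusions, induced by 100 µM Cu2SO4, selected 7 d at 30 °C without adenine and uracil, scored by deep sequencing of output versus input.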
row,Sequence,amyloid nucleation score
1,EASNCFAIRHFENKFAVETLICGDWTDLFRGVPV,inactive
2,EASNCFAIRHFENKFAVETLICCQVRLTGIGRAY,-0.648
3,EASNCFAIRHFENKFAVETLICLVLQARISKLTH,inactive
4,EASNCFAIRHFENKFAVETLICQIY,inactive
5,EASNCFAIRHFENKFAVETLICAFSFGP,8.05
6,EASNCFAIRHFENKFAVETLICRCTREYARNPA,4.29
7,EASNCFAIRHFENKFAVETLICGDRGSGQTVASD,inactive
8,EASNCFAIRHFENKFAVETLICMAGVCHRFLCKS,inactive
9,EASNCFAIRHFENKFAVETLICRFHITLRMRLVS,inactive
10,EASNCFAIRHFENKFAVETLICVCLVWGR,inactive
11,EASNCFAIRHFENKFAVETLICTSCMCRC,3.37
12,EASNCFAIRHFENKFAVETLICCSRKERNEGW,4.83
13,EASNCFAIRHFENKFAVETLICCLVRTDSRWLKC,2.41
14,EASNCFAIRHFENKFAVETLICFNGVHPNWGSVR,inactive
15,EASNCFAIRHFENKFAVETLICPIPLRLNVCGSR,inactive
16,EASNCFAIRHFENKFAVETLICVACCWP,7.75
17,EASNCFAIRHFENKFAVETLICIVMYQILKMYAM,inactive
18,EASNCFAIRHFENKFAVETLICYWLTASFMWDRW,inactive
19,EASNCFAIRHFENKFAVETLICNLVSIFRWSYYW,inactive
20,EASNCFAIRHFENKFAVETLICLRKYPLYNRFSR,0
21,EASNCFAIRHFENKFAVETLICTVLL,6.04
22,EASNCFAIRHFENKFAVETLICLHASRMAVTSKM,inactive

row,Sequence,amyloid nucleation score
1,EASNCFAIRHFENKFAVETLICKTYAVSRNVSLL,inactive
2,EASNCFAIRHFENKFAVETLICLRMGWERCPVRW,inactive
3,EASNCFAIRHFENKFAVETLICFRTVSVVVRWRW,inactive
4,EASNCFAIRHFENKFAVETLICDLMPLSWRGARR,inactive
5,EASNCFAIRHFENKFAVETLICGLIYDWDGSPRL,inactive
6,EASNCFAIRHFENKFAVETLICVCVVSVSDQLLA,inactive
7,EASNCFAIRHFENKFAVETLICACEL,0.00985
8,EASNCFAIRHFENKFAVETLICAYSDCLRIVLHI,1.22
9,EASNCFAIRHFENKFAVETLICCVLKSWLTAITG,inactive
10,EASNCFAIRHFENKFAVETLICDQVSTSLAMAAR,inactive
11,EASNCFAIRHFENKFAVETLICCFYCSCVTGW,inactive
12,EASNCFAIRHFENKFAVETLICRTTLAGLWVTTM,inactive
13,EASNCFAIRHFENKFAVETLICDRAWCPWDLVIA,-0.0194
14,EASNCFAIRHFENKFAVETLICIKGSWK,4.28
15,EASNCFAIRHFENKFAVETLICWAENTCVGLACR,4.92
16,EASNCFAIRHFENKFAVETLICWLKFCLYRRCCY,inactive
17,EASNCFAIRHFENKFAVETLICQVPGEVRVRDEG,inactive
18,EASNCFAIRHFENKFAVETLICLMLEVHYAAHRR,inactive
19,EASNCFAIRHFENKFAVETLICLFRSKMVDGMNV,inactive
20,EASNCFAIRHFENKFAVETLICMH,-0.585
21,EASNCFAIRHFENKFAVETLICYVRHEKGLCPSA,inactive

# Same assay, conditions: random library (experiment): 2
row,Sequence,amyloid nucleation score
1,EASNCFAIRHFENKFAVETLICKRGEMQWIGLVL,inactive
2,EASNCFAIRHFENKFAVETLICVVTIINTHGHSR,inactive
3,EASNCFAIRHFENKFAVETLICITKCLFFRDPND,inactive
4,EASNCFAIRHFENKFAVETLICFSYNNSTSRCSD,6.88
5,EASNCFAIRHFENKFAVETLICIGGECLLYSR,5.64
6,EASNCFAIRHFENKFAVETLICRVM,8.29
7,EASNCFAIRHFENKFAVETLICTDRVCAAMEVAA,inactive
8,EASNCFAIRHFENKFAVETLICLTNIFCSDAFVY,inactive
9,EASNCFAIRHFENKFAVETLICLSRDAMFAECIM,-0.0344
10,EASNCFAIRHFENKFAVETLICDVFVWWVLRAGR,inactive
11,EASNCFAIRHFENKFAVETLICGPMPTVRFHYIR,inactive
12,EASNCFAIRHFENKFAVETLICLYCTCY,6.46
13,EASNCFAIRHFENKFAVETLICDSSLCRVRQRLG,inactive
14,EASNCFAIRHFENKFAVETLICNLLKCGNHVINR,inactive
15,EASNCFAIRHFENKFAVETLICYRV,inactive
16,EASNCFAIRHFENKFAVETLICMWLFHWMSESVR,inactive
17,EASNCFAIRHFENKFAVETLICESIMRVWGFAW,inactive
18,EASNCFAIRHFENKFAVETLICADVEGQYWCDRV,inactive
19,EASNCFAIRHFENKFAVETLICIFFGAYKIIFLW,inactive
20,EASNCFAIRHFENKFAVETLICYGQIYDESRWWA,8.33
21,EASNCFAIRHFENKFAVETLICFDRMFV,inactive

row,Sequence,amyloid nucleation score
1,EASNCFAIRHFENKFAVETLICYVVLCLSGTHEG,5.45
2,EASNCFAIRHFENKFAVETLICCMRLVSRNAR,0.562
3,EASNCFAIRHFENKFAVETLICLGIITTWMRYTG,inactive
4,EASNCFAIRHFENKFAVETLICLKPKQELWIFIR,1.39
5,EASNCFAIRHFENKFAVETLICTAYFMYSLRSDI,0.027
6,EASNCFAIRHFENKFAVETLICWFSTFPCCANSF,4.94
7,EASNCFAIRHFENKFAVETLICYWHVMVDIYHGI,4.46
8,EASNCFAIRHFENKFAVETLICYVILDSRLFGVT,4.72
9,EASNCFAIRHFENKFAVETLICFCHGWLDVVSYR,inactive
10,EASNCFAIRHFENKFAVETLICFRSNTSY,2.26
11,EASNCFAIRHFENKFAVETLICIKVGMCRAYAGL,2.94
12,EASNCFAIRHFENKFAVETLICVNGFSILGEMLK,6.38
13,EASNCFAIRHFENKFAVETLICCLKGTFC,8.29
14,EASNCFAIRHFENKFAVETLICYYDLFAGYSSKG,inactive
15,EASNCFAIRHFENKFAVETLICHLSWNLALVDVS,inactive
16,EASNCFAIRHFENKFAVETLICPHWSVTLEFAST,5.78
17,EASNCFAIRHFENKFAVETLICDIIFGNLVLN,6.13
18,EASNCFAIRHFENKFAVETLICMLRGNMSSDFFW,inactive
19,EASNCFAIRHFENKFAVETLICRVYLSCVRYKYC,-0.438
20,EASNCFAIRHFENKFAVETLICGKMGMSRVVRDF,1.71

# Same assay, conditions: random library (experiment): 3
row,Sequence,amyloid nucleation score
1,EASNCFAIRHFENKFAVETLICNLTLVYGLVWNR,inactive
2,EASNCFAIRHFENKFAVETLICLLLYCSGSRHRA,inactive
3,EASNCFAIRHFENKFAVETLICHLMLTCW,inactive
4,EASNCFAIRHFENKFAVETLICEQTPAYRRRDGV,3.37
5,EASNCFAIRHFENKFAVETLICAINLNMVRVTRS,5.5
6,EASNCFAIRHFENKFAVETLICMGTWWIGRRIGT,inactive
7,EASNCFAIRHFENKFAVETLICLFIVNSARNKVR,inactive
8,EASNCFAIRHFENKFAVETLICPFLGTKIRRMPL,inactive
9,EASNCFAIRHFENKFAVETLICVSIGGELRSQRG,4.34
10,EASNCFAIRHFENKFAVETLICRKDSGTSLVSKV,3.97
11,EASNCFAIRHFENKFAVETLICHSFRFVSCNYCD,6.42
12,EASNCFAIRHFENKFAVETLICQSDHWGSMTK,1.15
13,EASNCFAIRHFENKFAVETLICFMW,8.09
14,EASNCFAIRHFENKFAVETLICTLVLI,2.25
15,EASNCFAIRHFENKFAVETLICRSGEWVRSKRCV,inactive
16,EASNCFAIRHFENKFAVETLICKRTASKGTPVPH,inactive
17,EASNCFAIRHFENKFAVETLICRHATGGYPDLWY,2.69
18,EASNCFAIRHFENKFAVETLICYPYRNHVPGK,inactive

row,Sequence,amyloid nucleation score
1,EASNCFAIRHFENKFAVETLICDVVGSATADCEL,inactive
2,EASNCFAIRHFENKFAVETLICHVSG,inactive
3,EASNCFAIRHFENKFAVETLICDILVYWKMCRDV,inactive
4,EASNCFAIRHFENKFAVETLICDSTTINYSICP,7.02
5,EASNCFAIRHFENKFAVETLICGVGTSYEVDVTR,inactive
6,EASNCFAIRHFENKFAVETLICHDYVCYALCSTL,5.58
7,EASNCFAIRHFENKFAVETLICRVS,6.94
8,EASNCFAIRHFENKFAVETLICGGAMRKAVSPWR,inactive
9,EASNCFAIRHFENKFAVETLICLGQAGGAWLTLC,inactive
10,EASNCFAIRHFENKFAVETLICEAWVGSCGGS,inactive
11,EASNCFAIRHFENKFAVETLICVEGNAAWASRRG,2.96
12,EASNCFAIRHFENKFAVETLICYVARYGPVGPWV,inactive
13,EASNCFAIRHFENKFAVETLICTGASRLCFGIPS,6.51
14,EASNCFAIRHFENKFAVETLICRWWPVEPSGRST,inactive
15,EASNCFAIRHFENKFAVETLICVYKWGSRGAMYW,inactive
16,EASNCFAIRHFENKFAVETLICVMVSAF,inactive
17,EASNCFAIRHFENKFAVETLICLEKDCNMVGRAY,inactive
